According to the supplement of paper PMC10126150:
Values marked as one replicate rest on one cluster of the flow cell; about a third of the high ones do not repeat.

Test system: ATP
Test: switch fluorescence ratio, 500 uM ATP over buffer (Cy3 cluster intensity, sum of 5 cycles each) (fold (ratio)); higher = stronger signal-on switching upon ATP binding; sequences stand for … in TCGTCGGCAGCGTCAGATGTGTATAAGAGACAGTTTTTTTTTTTTTTTTTTTTTTTTT…TC
Conditions: aptamer strand: ATP DNA aptamer (quencher-CACCTGGGGGAGTATTGCGGAGGAAGG + anchor), 100 nM annealed; ATP concentration: 500 uM; one replicate
Summary of the method: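 Five buffer/ATP imaging cycles were run on Cy3-labelled switching-strand clusters on a modified Illumina MiSeq flow-cell, with NaOH stripping and re-annealing between cycles. In each cycle, clusters annealed to 100 nM quencher-labelled ATP aptamer were imaged in selection buffer, then after 15 min with 500 uM ATP at 22 °C. Per cluster, the fluorescence ratio is summed target-cycle over summed buffer-cycle Cy3 intensity, averaged per switch-domain sequence. Only clusters within 100-1000 RFU were kept.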
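Note: ATP exposure 15 min at 22 °C before imaging.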

Sequence	switch fluorescence ratio
ATGACTTATA	1.03
TAGGCGCACG	0.997
ACCTGGACAC	1.19
CTATTCTGTA	0.97
ATATTGCCTT	0.978
AGAGAAGGTT	0.995
ATACTATCAC	1.15
AGTCCATTGA	1.02
ATTGAGGATC	1
TTTGGGTGCT	1.04
ATCCATGTC	0.882
GTGTCTAGAG	1
ATTTGGCTGC	1.01
TATGCTGT	1.01
GTATTAGAAC	1
CACTTTTGGC	1.13
TCTATAACC	1.07
AGAATCTGTG	0.999
GCTAATAGAG	0.981
AATTGGCACA	1
TTCCCAGTCA	1.02
GATACTTTAA	1.04

Sequence	switch fluorescence ratio
ATCGGGTGTT	1.06
GCAGGATGTT	0.98
AGTGTTGCTC	0.994
ACTTGGGACG	1.01
AACTAGTCCA	0.994
CGTGACGGCA	1
GCTGCTTTCG	0.979
GATGGCAAAC	3.39
TTAAGACAGC	1.02
ACGCTCATAT	1.28
GTACTACAGT	1.04
TGCAGTACTA	1.83
TAGTAGTCGA	1.03
AACCCTAGCT	1.05
GACCTTAGGG	1.06
AATCCTTTGG	1.02
TGTCTGACGG	1.01
CGGGTCGTTT	0.971
GAAGCGCCAG	0.998
CTGGTAAAAA	1.05
CGGTGTATGT	0.965
TTCAAGCCGA	0.98

Sequence	switch fluorescence ratio
CTTAAGTCTA	0.988
TGCCCAGAGT	1.15
GTTATCATGG	1.01
CCCAATTGGT	1
GCGTAGTGGG	1.03
TTGATGCTAG	0.997
AAATTTCTAT	1.04
GCCATTTAG	1.02
CAGGATGGTA	0.976
TATTCGGCGG	1.01
GCTTTAGCTT	1.02
GGTTCATCCG	1.16
AACTGGCAGA	0.979
AGGAATAGGC	1.04
GTGGACGGTG	0.99
CAGGAGAGTC	1.01
TAAGTATCAC	0.983
TCTACGCTGG	1.72
CGCCCGGCGG	1.02
GCTTTCATGC	0.988
GAGGTGTATC	0.974
GTATTCCGAC	1.16

Sequence	switch fluorescence ratio
GGCTCATGCC	1.55
GGCGGCCGAC	1.01
AGATGCAAGC	1.1
ATTCTCTGTA	0.995
ATTAGCCGTG	0.978
GCAATGGGGA	1.13
GGAGACTTTT	0.974
GAATAGTGGA	0.995
CTACTTTTAG	1.08
ACACTTTGGT	0.98
TTACCCCAT	1.98
TAAAAGCGAT	1
ATGGACGCTG	0.954
TGTGTCTGTG	0.97
GTTACATTTA	1.14
CCTCTGATGT	1.91
CCAATGGTGC	1.58
CATGGCACAA	1.02
TTAGAATATT	1.01
